# From PubChem BioAssay (Tox21)
# This list was built around the results that the source calls inconclusive (neither active nor inactive); the mix of calls is not that of the screen. For part of these data: Potencies of inconclusive entries are left out as doubtful fits. Calls of active or inactive are those of the source. Unless noted, calls follow the shape of the dose curve; as a rule, active = well fitted curve in the direction sought with a large enough effect in the repeat runs; inconclusive = weak or mixed curves; inactive = no such curve, though single readings can be large; an effect the other way counts as inactive or inconclusive.
# What was measured:
# [1] = qHTS assay for small molecules that induce genotoxicity in human embryonic kidney cells expressing luciferase-tagged ATAD5 - cell viability (AID 651634; calls by dose curve; also: potency is read from the fitted curve at half-maximal effect; nearly all actives have a fitted effect of over 25% in size)
# How it was run: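 Seeding of 2,000 HEK293T ATAD5-luciferase cells per well preceded pin-tool compound transfer. Plates sat 15.5 hr at 37C under 5% CO2, then fluorescence was read after 30 min with CellTiter-Fluor.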
# [2] = qHTS assay for identifying genotoxic compounds that show differential cytotoxicity against isogenic chicken DT40 cell lines with known DNA damage response pathways - wild type cell line (AID 743012); details: DT40 wild type chicken cells viability, CellTiter-Glo, 40 h; activity change, negative = cytotoxicity: at 68.4 µM (top of the series) unless noted; also: nearly all actives have a fitted effect of over 60% in size; also: potency is read from the fitted curve at half-maximal effect; as to activity change, negative = cytotoxicity: % is scaled to controls: 0 for no effect and ±100 for the full control effect
# How it was run: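 Using parental DT40 (300 cells/well), compounds delivered in DMSO incubate 40 h at 37 C/5% CO2. CellTiter-Glo reagent then stands 30 min at room temperature, and luminescence gives cell viability.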
# [3] = qHTS assay for identifying genotoxic compounds that show differential cytotoxicity against isogenic chicken DT40 cell lines with known DNA damage response pathways - Rev3 mutant cell line (AID 743014); details: chicken DT40 Rev3-/- viability, CellTiter-Glo, 40 h; activity, negative = cytotoxicity: at 68.4 µM (top of the series); also: potency is read from the fitted curve at half-maximal effect; nearly all actives have a fitted effect of over 55% in size
# [4] = qHTS assay to identify small molecule antagonists of the androgen receptor (AR) signaling pathway - cell viability counter screen (AID 743033; also: potency is read from the fitted curve at half-maximal effect; nearly all actives have a fitted effect of over 45% in size)
# [5] = tested on: thyroid hormone receptor (rat, GH3 cells); assay: qHTS assay to identify small molecule agonists of the thyroid receptor (TR) signaling pathway (AID 743066; calls by dose curve; also: potency is read from the fitted curve at half-maximal effect); details: GH3.TRE-Luc cells, TR agonist luciferase, 24 h; activation: at 83.9 µM (top of the series) unless noted
# [6] = target: Estrogen receptor (Homo sapiens) (UniProt P03372); assay: qHTS assay to identify small molecule antagonists of the estrogen receptor alpha (ER-alpha) signaling pathway (AID 743069; active = well fitted curve in the direction sought with a large enough effect in the signal ratio in the repeat runs, not every such curve was filed as active; inconclusive = weak or mixed curves, or effect the other way; inactive = no such curve, though single readings can be large or run the other way; the % refers to the signal ratio; also: potency is read from the fitted curve at half-maximal effect); details: HEK293 ER-alpha-UAS-bla, beta-lactamase ratio, antagonist mode; activity, negative = inhibition: at 69.4 µM (top of the series) unless noted
# Sequence of UniProt P03372 (P03372 whole entry, looked up): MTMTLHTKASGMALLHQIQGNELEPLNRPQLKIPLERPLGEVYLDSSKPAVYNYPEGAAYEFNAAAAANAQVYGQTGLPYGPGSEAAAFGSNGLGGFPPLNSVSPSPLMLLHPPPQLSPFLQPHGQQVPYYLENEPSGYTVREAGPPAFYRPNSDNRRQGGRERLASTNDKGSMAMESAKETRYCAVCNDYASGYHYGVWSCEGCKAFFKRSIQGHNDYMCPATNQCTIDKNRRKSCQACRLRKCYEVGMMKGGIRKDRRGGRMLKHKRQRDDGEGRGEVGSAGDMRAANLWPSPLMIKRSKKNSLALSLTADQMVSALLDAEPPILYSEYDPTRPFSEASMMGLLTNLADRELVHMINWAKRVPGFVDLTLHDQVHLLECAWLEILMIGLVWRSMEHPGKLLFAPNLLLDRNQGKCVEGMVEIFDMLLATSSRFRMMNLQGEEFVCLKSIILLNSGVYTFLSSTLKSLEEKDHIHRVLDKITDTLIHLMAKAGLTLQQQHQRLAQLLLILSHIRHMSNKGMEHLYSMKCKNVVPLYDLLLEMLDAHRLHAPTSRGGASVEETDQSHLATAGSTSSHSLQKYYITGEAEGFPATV
# How it was run: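 HEK293 cells stably carrying an ER-alpha-UAS-bla beta-lactamase reporter were pre-cultured overnight in 2% charcoal-stripped FBS medium. Test compounds in DMSO were added together with 17beta-estradiol for 18 hr at 37C. Read-out was fluorescence after 2 hr with LiveBLAzer B/G FRET substrate at room temperature.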
# [7] = target: Estrogen receptor (Homo sapiens) (UniProt P03372); assay: qHTS assay to identify small molecule agonists of the estrogen receptor alpha (ER-alpha) signaling pathway using the BG1 cell line (AID 743079); details: BG1Luc4E2 cells, ERE-luciferase agonist, 22 h; activation: at 70.3 µM (top of the series) unless noted; also: potency is read from the fitted curve at half-maximal effect; nearly all actives have a fitted effect of over 20% in size
# [8] = qHTS assay to identify small molecule antagonists of the estrogen receptor alpha (ER-alpha) signaling pathway using the BG1 cell line (AID 743080; calls by dose curve; also: potency is read from the fitted curve at half-maximal effect; nearly all actives have a fitted effect of over 25% in size); details: BG1Luc4E2 ERE-luciferase antagonist mode, luminescence; activity change, negative = inhibition: at 70.3 µM (top of the series) unless noted
# How it was run: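 Antagonist mode: compounds in DMSO were pinned onto BG1-Luc-4E2 cells alongside 17beta-estradiol agonist, incubated 21.5 h, and ERE-driven luciferase measured with ONE-Glo. Cytotoxicity was multiplexed using CellTiter-Fluor fluorescence.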
# [9] = qHTS assay to identify small molecule phospholipidosis (PLD) inducers (AID 1259344; active = well fitted curve in the direction sought with a large enough effect; inconclusive = small, poorly fitted or top-dose-only effect, or another doubt; inactive = no such curve, though single readings can be large; an effect the other way counts as inactive or inconclusive; also: % is scaled to controls: 0 for no effect and ±100 for the full control effect)
# How it was run: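 HepG2 cells on collagen I, attached 4 h at 37 C, were co-treated with compound and LipidTOX Red dye for 24 h at 37 C, then fixed with paraformaldehyde plus Hoechst 33342 and imaged by high-content microscopy for phospholipid accumulation.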
# [10] = qHTS assay for small molecule agonists of the p53 signaling pathway (AID 651631; calls by dose curve; also: % is scaled to controls: 0 for no effect and ±100 for the full control effect; nearly all actives have a fitted effect of over 15% in size); details: HCT-116 p53RE-bla reporter, beta-lactamase FRET ratio, 16 h; activation: at 73.3 µM (top of the series) unless noted
# How it was run: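 Agonist mode screen using a stably integrated beta-lactamase gene under p53 response elements in HCT-116 cells. Compound exposure lasts 16 h at 37 °C; fluorescence intensity is measured following 2 h FRET substrate loading.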
# [11] = qHTS assay for small molecule disruptors of the mitochondrial membrane potential (AID 720635); details: HepG2 mitochondrial membrane potential, Mito-MPS dye ratio; ratio activity, negative = MMP loss: at 83.2 µM (top of the series) unless noted; also: % is scaled to controls: 0 for no effect and ±100 for the full control effect
# How it was run: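 HepG2 cells (2,000/well) attached overnight at 37C, then took compound for 1 hr at 37C, 5% CO2. Mito-MPS dye was added for 30 min; fluorescence was read at 490/535 nm (monomers) and 540/590 nm (aggregates).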
# [12] = qHTS assay to identify small molecule antagonists of the estrogen receptor alpha (ER-alpha) signaling pathway using the BG1 cell line - cell viability counter screen (AID 743081); details: BG1Luc4E2 viability, CellTiter-Fluor, 22 h; activity change, negative = cytotoxicity: at 70.3 µM (top of the series);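 also: compound given together with 17beta-estradiol as the ER stimulus; % is scaled to controls: 0 for no effect and ±100 for the full control effect; nearly all actives have a fitted effect of over 45% in size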
# [13] = qHTS assay to identify small molecule agonists of the peroxisome proliferator-activated receptor delta (PPARd) signaling pathway - cell viability counter screen (AID 743211); details: PPARd-bla HEK293H viability, CellTiter-Glo luminescence, 17 h; activity change, negative = cytotoxicity: at 62.6 µM (top of the series); also: potency is read from the fitted curve at half-maximal effect; nearly all actives have a fitted effect of over 55% in size
# How it was run: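 Counter screen for cytotoxicity run in parallel with the PPARd reporter screen. Beta-lactamase reporter HEK293H cells exposed to compounds 17 h; ATP-based CellTiter-Glo luminescence quantified viability.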
# [14] = qHTS assay to identify small molecule agonists of the vitamin D receptor (VDR) signaling pathway - cell viability counter screen (AID 743224); also: % is scaled to controls: 0 for no effect and ±100 for the full control effect; nearly all actives have a fitted effect of over 50% in size
# How it was run: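 Here cell health was gauged by luminescent ATP detection (CellTiter-Glo, 30 min RT) in VDR-bla cells that had been incubated with test compounds for 16 h at 37C and 5% CO2.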
# [15] = target: Estrogen receptor beta (Homo sapiens) (UniProt Q92731); assay: qHTS assay to identify small molecule agonists of the estrogen receptor beta (ER-beta) signaling pathway (AID 1259377; active = well fitted activation curve with a large enough effect in the signal ratio in the repeat runs, not every such curve was filed as active; inconclusive = weak or mixed curves, or effect the other way; the % refers to the signal ratio; also: % is scaled to controls: 0 for no effect and ±100 for the full control effect); details: ER-beta-UAS-bla HEK293T, beta-lactamase FRET ratio, 16 h; activation: at 92.4 µM (top of the series) unless noted
# Sequence of UniProt Q92731 (Q92731 whole entry, looked up, the tested form may be a part): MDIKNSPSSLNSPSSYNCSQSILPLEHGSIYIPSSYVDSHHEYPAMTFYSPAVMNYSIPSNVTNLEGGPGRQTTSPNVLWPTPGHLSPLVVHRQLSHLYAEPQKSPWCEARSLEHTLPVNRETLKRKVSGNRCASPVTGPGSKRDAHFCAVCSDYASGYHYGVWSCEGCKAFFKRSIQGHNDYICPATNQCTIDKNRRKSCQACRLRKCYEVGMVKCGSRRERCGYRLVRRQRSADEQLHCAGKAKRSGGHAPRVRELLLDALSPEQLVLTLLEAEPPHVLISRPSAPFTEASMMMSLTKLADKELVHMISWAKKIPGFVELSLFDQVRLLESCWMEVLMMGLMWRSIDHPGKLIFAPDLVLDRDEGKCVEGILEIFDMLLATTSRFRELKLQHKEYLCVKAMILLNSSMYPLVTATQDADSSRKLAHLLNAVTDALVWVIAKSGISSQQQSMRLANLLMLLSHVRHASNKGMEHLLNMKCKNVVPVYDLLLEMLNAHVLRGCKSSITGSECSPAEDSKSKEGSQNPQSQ
# How it was run: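 Agonist mode cell assay in GripTite HEK293T cells expressing an ER-beta fusion that drives beta-lactamase from an Upstream Activator Sequence; 16 hr compound exposure at 37C, then 2 h LiveBLAzer B/G FRET substrate at room temperature, fluorescence read-out.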
# [16] = qHTS assay to identify small molecule agonists of the estrogen receptor alpha (ER-alpha) signaling pathway in the presence of an antagonist - cell viability counter screen (AID 1259386);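 also: cells exposed to compounds for 22 h at 37 °C before the viability read; % is scaled to controls: 0 for no effect and ±100 for the full control effect; nearly all actives have a fitted effect of over 30% in size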
# How it was run: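 ICI-182,780 at 10.0nM final accompanies the compound titration (15 concentrations, 22hr, 37C) on VM7Luc4E2 cells. The CellTiter-Fluor fluorescence readout runs in the same wells as the luciferase assay.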
# [17] = target: Cytochrome P450 2C9 (Homo sapiens) (UniProt P11712); assay: Cytochrome P450 Family 2 Subfamily C Member 9 (CYP2C9) small molecule antagonists: luciferase reporter qHTS assay (AID 1671198); also: % is scaled to controls: 0 for no effect and ±100 for the full control effect; nearly all actives have a fitted effect of over 50% in size
# Sequence of UniProt P11712 (P11712 whole entry, looked up): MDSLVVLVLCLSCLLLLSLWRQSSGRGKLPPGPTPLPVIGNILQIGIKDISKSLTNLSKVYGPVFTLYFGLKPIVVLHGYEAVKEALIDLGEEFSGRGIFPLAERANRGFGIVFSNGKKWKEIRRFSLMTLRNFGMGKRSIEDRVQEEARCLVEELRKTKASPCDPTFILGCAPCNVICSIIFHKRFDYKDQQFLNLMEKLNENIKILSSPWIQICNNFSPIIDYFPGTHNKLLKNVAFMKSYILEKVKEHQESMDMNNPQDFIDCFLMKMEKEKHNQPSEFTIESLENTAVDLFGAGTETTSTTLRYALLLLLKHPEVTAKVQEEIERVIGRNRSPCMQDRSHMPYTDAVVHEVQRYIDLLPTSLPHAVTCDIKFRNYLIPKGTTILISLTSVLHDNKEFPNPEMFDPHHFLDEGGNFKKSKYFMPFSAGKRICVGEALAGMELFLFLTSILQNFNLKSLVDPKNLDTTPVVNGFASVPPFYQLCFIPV
# How it was run: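 CYP2C9 activity was measured with a P450-Glo proluciferin substrate. Enzyme–substrate mix was held with compound for 10 min at room temperature, then NADPH regeneration solution was added for 1 h at 37C. Luciferin product was read as luminescence.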
# [18] = qHTS assay for small molecule disruptors of the mitochondrial membrane potential - cell viability (AID 720634; calls by dose curve;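 also: human HepG2 liver cancer cells; % is scaled to controls: 0 for no effect and ±100 for the full control effect; nearly all actives have a fitted effect of over 20% in size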)
# How it was run: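 Measuring cytotoxicity alongside mitochondrial potential, the screen quantified ATP by luminescence in HepG2 cells after 1 hr compound incubation and a 30 min room-temperature CellTiter-Glo step.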
# [19] = target: Peroxisome proliferator-activated receptor gamma (Homo sapiens) (UniProt P37231); assay: qHTS assay to identify small molecule agonists of the peroxisome proliferator-activated receptor gamma (PPARg) signaling pathway (AID 743094; active = well fitted activation curve with a large enough effect in the signal ratio in the repeat runs, not every such curve was filed as active; inconclusive = weak or mixed curves, or effect the other way; inactive = no such curve, though single readings can be large or run the other way; the % refers to the signal ratio; also: potency is read from the fitted curve at half-maximal effect); details: HEK293H PPARg-UAS-bla, beta-lactamase FRET ratio, 17 h; activation: at 57 µM (top of the series) unless noted
# Sequence of UniProt P37231 (P37231 whole entry, looked up): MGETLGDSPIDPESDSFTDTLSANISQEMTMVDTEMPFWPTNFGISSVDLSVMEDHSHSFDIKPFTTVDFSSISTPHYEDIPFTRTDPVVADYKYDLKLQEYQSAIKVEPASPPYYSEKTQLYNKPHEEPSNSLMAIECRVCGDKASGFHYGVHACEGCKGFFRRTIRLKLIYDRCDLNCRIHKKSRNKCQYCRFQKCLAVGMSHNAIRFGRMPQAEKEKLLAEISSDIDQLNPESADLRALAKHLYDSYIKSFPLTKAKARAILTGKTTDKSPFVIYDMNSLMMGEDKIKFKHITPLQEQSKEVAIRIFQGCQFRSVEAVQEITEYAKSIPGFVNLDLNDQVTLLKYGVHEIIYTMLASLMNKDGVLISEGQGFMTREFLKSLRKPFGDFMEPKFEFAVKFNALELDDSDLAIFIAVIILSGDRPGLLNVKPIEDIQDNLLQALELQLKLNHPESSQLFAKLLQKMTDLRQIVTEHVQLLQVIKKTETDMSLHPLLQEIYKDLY
# How it was run: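 Following 5 h plating at 37C, PPARg-bla HEK293H cells receive compound or DMSO for 17 h; fluorescence intensity is recorded after LiveBLAzer B/G loading for 1 h at room temperature.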
# [20] = qHTS assay to identify small molecule antagonists of the glucocorticoid receptor (GR) signaling pathway - cell viability counter screen (AID 720693); details: GR-bla HeLa viability, CellTiter-Glo luminescence, 18 h, with 5 nM dexamethasone present; viability change, negative = cytotoxic: at 58.5 µM (top of the series) unless noted; also: potency is read from the fitted curve at half-maximal effect; nearly all actives have a fitted effect of over 55% in size
# [21] = target: Nuclear receptor subfamily 1 group I member 2 (Homo sapiens) (UniProt O75469); assay: Human pregnane X receptor (PXR) activation by small molecules, qHTS assay (AID 1346985); also: potency is read from the fitted curve at half-maximal effect; nearly all actives have a fitted effect of over 40% in size
# How it was run: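 DPX-2 cells (HepG2 co-transfected with a PXR response element and a CYP3A4-promoter luciferase construct) were seeded at 2,000 per well, rested 5 hr at 37C, then exposed to DMSO-dissolved compounds for 24 hr. Activation was read as luciferase luminescence.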
# Tags tell the direction and shape of the fitted curve or compound fluorescence and quenching.
smiles,measurement,setting,value
O.O.O.O=C([O-])C(O)C(O)C(=O)[O-].O=C([O-])C(O)C(O)C(=O)[O-].[K+].[K+].[Sb].[Sb] (centres undefined),Potency,[1],"inconclusive [falling, partial curve, poor fit]"
same,Potency,[2],"inconclusive [cytotoxic, single point]"
same,Potency,[3],inconclusive [cytotoxic]
same,Potency,[4],"inconclusive [cytotoxic, single point]"
same,Potency,[5],"inconclusive [inhibitor, partial curve, poor fit]"
same,Potency,[6],active: 19 µM [inhibitor]
same,Potency,[7],"inconclusive [inhibitor, single point]"
same,Potency,[8],"inconclusive [rising, partial curve]"
same,Potency,[9],inactive
CC(C)(C)NCC(O)c1ccccc1Cl (centres undefined),Potency,[10],inactive
same,"ratio activity, negative = MMP loss",[11],inconclusive: 34.5%
same,Potency,[2],inactive
same,Potency,[12],inactive
same,Potency,[13],"inconclusive [cytotoxic, partial curve]"
same,Potency,[14],inactive
same,Potency,[15],inactive
same,Potency,[16],inactive
same,Potency,[17],inactive
O=C1CCO1,Potency,[18],inactive
same,Potency,[19],inactive
[H+].[H+].[Hg+2].[O-]B([O-])[O-].[c-]1ccccc1,Potency,[20],active: 2.68 µM
same,activation,[5],inconclusive: -8.65% [phenotype inactive]
same,Potency,[19],active: 19 µM
same,Potency,[21],"inconclusive [activator, single point]"
